Measurements taken from PubChem BioAssay AID1030 (National Center for Advancing Translational Sciences (NCATS), 2008).
About 16,000 (7.3%) of roughly 220,000 compounds were called active. Inconclusive results, whose numbers are uncertain, are shown with a selection of clear calls. The call rests on the fitted dose curve; in most records, active means well fitted inhibition curve with a large enough effect (not every such curve was filed as active); inconclusive means small, poorly fitted or top-dose-only effect, or another doubt; inactive means no such curve, though single readings can be large or run the other way. Potencies beside an inconclusive call are fits to weak or partial responses and may not hold up.

Biological target: Aldehyde dehydrogenase 1A1 (Homo sapiens) (UniProt P00352)
Test: qHTS Assay for Inhibitors of Aldehyde Dehydrogenase 1 (ALDH1A1);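 on activity, negative = inhibition: plate controls were no enzyme wells and a reference inhibitor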
Settings: Purified ALDH1A1, NADH fluorescence, propionaldehyde substrate; series mostly up to 75.3 µM; activity, negative = inhibition: at the top concentration
Potency means the concentration at half of the fitted maximal effect; tags describe the fitted curve by direction and shape.

Potency, active:
COc1ccccc1Nc1n[nH]c(=S)s1 3.55 µM
CC1CCCCC1NC(=O)c1cn(C)c2ccc(S(=O)(=O)N3CCCC3)cc2c1=O (stereo not drawn) 12.6 µM
C=CCNC(=S)Nc1sc2c(c1C(=O)OCC)CC(C(C)C)OC2 (stereo not drawn) 11.2 µM
COc1ccc(C(=O)Nc2cc(Cl)ccc2OC(=O)c2ccc(OC)cc2)cc1 1 µM
COc1cccc(NC(=O)/C=C/c2ccco2)c1 25.1 µM
O=C1c2c([N+](=O)[O-])cc([N+](=O)[O-])cc2S(=O)N1Cc1ccccc1 (stereo not drawn) 3.55 µM

Potency, inconclusive:
CC(=O)N1N=C(N)SC1(C)C 39.8 µM [inhibitor, single point]
CC(C)c1nc2ccc(Br)cn2c1NC1CCCC1 31.6 µM [inhibitor, single point]
CCOc1ccc(-c2c(C)n([O-])c3c([n+]2=O)CCCC3)cc1 39.8 µM [inhibitor, single point]
COc1ccc2nc(Nc3nc(CSc4nnnn4-c4ccccc4)cc(=O)[nH]3)nc(C)c2c1 1.41 µM [inhibitor, full curve]
O=C(Nc1ccc2c(c1)OCCO2)c1ccc2nccnc2c1 28.2 µM [inhibitor, single point]
COc1ccc(-c2c(C)c3ccc(OCC(C)=O)cc3oc2=O)cc1 35.5 µM [inhibitor, single point]
CCCCOc1ccc(CSCCNC(=S)Nc2ccccc2)cc1 22.4 µM [inhibitor, single point]
O=C(Oc1ccc2c3c(c(=O)oc2c1)CCCC3)c1ccco1 31.6 µM [inhibitor, partial curve]
CCC(C)[C@H](NC(=O)OC(C)(C)C)C(=O)N/N=C/C1=Cc2ccccc2OC1 (stereo partly drawn) 20 µM [inhibitor, partial curve]
COc1ccc(Oc2nc(-c3ccccn3)nc3ccccc23)cc1 31.6 µM [inhibitor, single point]
COCc1cc(C)nc(SCC(=O)Oc2ccc(Cl)cc2)c1C#N 28.2 µM [inhibitor, partial curve]
COc1ccc(-c2nc3cnc(N4CCNCC4)nc3n(-c3ccccc3)c2=O)cc1 8.91 µM [inhibitor, partial curve]
Cc1ccc(S(=O)(=O)CC(=O)N2CCCCCC2)cc1 35.5 µM [inhibitor, single point]
CCN(CC)CCNC(=O)CCCCCn1c(=O)[nH]c2cc(C(=O)OC)ccc2c1=O 28.2 µM [inhibitor, partial curve]
O=C1SCCC1NS(=O)(=O)c1ccccc1[N+](=O)[O-] (stereo not drawn) 39.8 µM [inhibitor, single point]
COc1cccc(NC(=S)NNC(=O)Cn2nc(C(F)F)cc2C(F)F)c1 35.5 µM [inhibitor, single point]
COc1cccc(Cn2c(=O)c(-c3ccccc3)nc3cnc(N(C)C)nc32)c1 2.82 µM [inhibitor, full curve]
Cc1cc(NC(=O)C2CCCN2C(=O)Nc2cccc(Cl)c2)ccc1-n1cnnn1 (stereo not drawn) 14.1 µM [inhibitor, partial curve]
CS(=O)(=O)c1sc2nc(-c3cccs3)cc(-c3ccccc3)c2c1N 28.2 µM [inhibitor, partial curve]
COc1ccccc1N(C)S(=O)(=O)c1ccc(C(=O)NCc2ccc3c(c2)OCO3)cc1 39.8 µM [inhibitor, single point]
COC(=O)[C@H](Cc1ccccc1)NC(=O)O[C@@H]1C(=O)c2cc(Br)ccc2O[C@H]1c1ccc2c(c1)OCO2 39.8 µM [inhibitor, single point]
O=[N+]([O-])c1cc(Cc2ccccc2)cc(C=Nc2ccc(N3CCOCC3)cc2)c1O 14.1 µM [inhibitor, partial curve]
Cc1cnc(NC(=O)c2cc3c(C)nn(Cc4ccccc4Cl)c3s2)s1 39.8 µM [inhibitor, single point]
NS(=O)(=O)c1ccc(NC(=O)COC(=O)C23CC4CC(CC(C4)C2)C3)cc1 3.98 µM [inhibitor, full curve]
S=c1[nH]nc(-c2cccnc2)n1/N=C/c1cccs1 39.8 µM [inhibitor, single point]
Cc1c(NC(=O)c2ccc(=O)oc2)c(=O)n(-c2ccccc2)n1C 17.8 µM [inhibitor, partial curve]
CCc1ccc2nc(N3CCN(C)CC3)c(C#N)cc2c1 28.2 µM [inhibitor, single point]
CCc1nnc(NC(=O)CSc2nc(C)cc(C)c2C#N)s1 39.8 µM [inhibitor, single point]
C=CCn1c(SCc2cccc(F)c2)nc2cc(C(=O)N3CCC(C(N)=O)CC3)ccc2c1=O 20 µM [inhibitor, partial curve]
CCCc1nn(-c2cc(Cl)ccc2OC)c2c1C(=O)CC(C)(C)C2 35.5 µM [inhibitor, single point]
CC(=O)c1ccc(OCc2cc([N+](=O)[O-])cc3c2OCOC3)cc1 39.8 µM [inhibitor, single point]
Cc1ccc(C2c3sc(=O)[nH]c3SC3C4CC(C5C(=O)N(C(C)C(=O)O)C(=O)C45)C23)cc1 (stereo not drawn) 4.47 µM [inhibitor, single point]
Cc1ccc2nc3nc(NCC4CCCO4)c(C(=O)NC4CCCC4)cc3c(=O)n2c1 (stereo not drawn) 1.41 µM [inhibitor, partial curve]
CC(=O)Nc1ccc(N2C(=O)CC(N3CCSCC3)C2=O)cc1 (stereo not drawn) 31.6 µM [inhibitor, single point]
COC(=O)c1cc2c(cc1NC(=O)CSCCc1ccccn1)OCO2 35.5 µM [inhibitor, single point]
O=C(CN1CCN(c2ccccn2)CC1)NC1CCCCC1 28.2 µM [inhibitor, single point]
CCn1c(CNC(=O)c2ccco2)nnc1SCC(=O)Nc1ccc(Br)cc1F 39.8 µM [inhibitor, single point]
CN1CCC(OC(=O)COc2ccc(Br)cc2)CC1 39.8 µM [inhibitor, single point]
Cc1cc(=O)oc2cc(OCC3CC(c4ccccc4Cl)=NO3)ccc12 (stereo not drawn) 15.8 µM [inhibitor, partial curve]
CCn1c2ccccc2c(=O)c2ccccc21 39.8 µM [inhibitor, single point]

Potency, inactive:
C[C@@H](NC(=O)/C(C#N)=C/c1ccc(O)c(O)c1)c1ccccc1

activity, negative = inhibition, inactive:
O=C(NNC(=O)c1ccccc1C(=O)O)c1ccc(O)cc1 -1.98%
CCn1c(SCC(=O)NCc2ccco2)nnc1-c1ccncc1 -4.21%
C#CCOCCOCCOCCNc1nc(N2CCN(C(=O)[C@H](CCCCN)n3cc([C@@H](N)CC(C)C)nn3)CC2)nc(N2CCN(C(=O)[C@H](Cc3ccc(O)cc3)n3cc([C@@H](N)CC(C)C)nn3)CC2)n1 13.6%
CCCCC1=CC2=CC(=O)C(C)(OC(=O)CC)C(=O)C2=CN1Cc1ccccc1 (stereo not drawn) 18.9% [at 13.5 µM]
N/C(=N\OC(=O)N1c2ccccc2Sc2ccccc21)c1ccccc1 8.14%
COc1cc(OC)nc(NC(=O)NS(=O)(=O)c2ccc(F)cc2)n1 1.66%
O=C(N/N=C/C=C/c1ccccc1[N+](=O)[O-])c1cccs1 -8.34%
O=C(CCCn1c(SCC(=O)c2ccc(F)cc2)nc2ccccc2c1=O)NCc1ccccc1 6.26%
COc1ccc(C(=O)N/N=C/c2sc(N3CCOCC3)nc2-c2ccccc2)cc1OC -12.2%
Nn1c(N2CCCCC2)nc2ccccc21 7.67%
CCC(=O)Nc1cc(C(C)C)c(O)cc1C 8.94%
O=C(CN1C(=O)NC2(CCCCC2)C1=O)Nc1ccc(F)cc1 -15.2%
O=C(CCl)Nc1ccccc1C(=O)NCc1ccccc1 -3.96%
O=C(NC1CCS(=O)(=O)C1)c1cccc(S(=O)(=O)N2CCCC2)c1 (stereo not drawn) 12.7%
O=C1N(Cc2cccnc2)C[C@@H]2C[C@@H](c3ccc4nsnc4c3)N3CCC[C@@]123 -4.94%
COc1ccc(OC)c(NC(=O)c2ccno2)c1 -1.88%
CCN(CC)S(=O)(=O)c1cccc(C(=O)N/N=C/c2cccc(O)c2O)c1 0.865%
CCSc1nnc(NC(=O)CSc2nc3c(c(=O)n2C)SC(C)C3)s1 (stereo not drawn) -17.6%
Cc1c[nH]c(=O)n(CCCN2CCN(c3ccccc3OCC(F)(F)F)CC2)c1=O 3.83%
Cc1ccccc1OCCNc1cc(N2CCN(CCO)CC2)ccc1[N+](=O)[O-] -4.07%
CCOC(=O)C1(Cc2ccccc2)CCN(Cc2ccc(COC)o2)CC1 2.83%
COc1ccccc1-n1cc([C@@H]2C[C@H]3CN(c4ccccc4)C(=O)[C@]34CCCN24)cn1 4.99%
CC(C)[C@H](N)c1nnc(SCC(=O)c2ccc(Cl)cc2)o1 2.63%
CN1CCN(C(c2ccccc2)c2nnnn2Cc2ccccc2)CC1 (stereo not drawn) 10.9%
CN(C)S(=O)(=O)Nc1ccc2c(c1)OCO2 1.45%
N#Cc1c(NC(=O)CSc2nnc(-c3ccco3)n2-c2ccccc2)sc2c1CCC2 -14.7%
